In publication PMC7673538 (PLoS Biology, 2020):

Assays:
[1] = system: rat primary cortical cultures
Rluc-CV-B3 = assay type: cell-based
[2] = system: rat primary cortical cultures; assay: MEA recordings of spontaneous neuronal activity in rat primary cortical cultures; conditions: 10µM; 0.5h

O=C(c1ccco1)N(Cc1ccc(F)cc1)c1ccccc1 [Compound 19b, N-(4-Fluorobenzyl)-N-phenylfuran-2-carboxamide]
effect on MSR, MBR and MNBR (in words) [1]: without effect

O=C(c1cc[nH]c1)N(Cc1ccc(F)cc1)c1ccccc1 [Compound 12b, N-(4-Fluorobenzyl)-N-phenyl-1H-pyrrole-3-carboxamide]
effect on MSR, MBR and MNBR (in words) [1]: without effect

COc1ccc(N(Cc2ccc(F)cc2)C(=O)c2cc[nH]c2)cc1 [Compound 12a, N-(4-Fluorobenzyl)-N-(4-methoxyphenyl)-1H-pyrrole-3-carboxamide]
effect on MSR, MBR and MNBR (in words) [1]: without effect

O=C(c1ccco1)N(Cc1ccc(C(F)(F)F)cc1)c1ccccc1 [Compound 19d, N-phenyl-N-(4-(trifluoromethyl)benzyl)furan-2-carboxamide]
effect on MSR, MBR and MNBR (in words) [1]: without effect | resistance conferred by 2C mutations F190L/H243R (in words) (Rluc-CV-B3; Rluc-CV-B3 2C[F190L/H243R], Fig 4B): high level of resistance | resistance conferred by 2C mutation H243R (in words) (Rluc-CV-B3; Rluc-CV-B3 2C[H243R], Fig 4B): did not provide any resistance | Number of Bursts [2]: 118.7% of control | Number of Network Bursts [2]: 124.8% of control | Number of Spikes [2]: 84.5% of control

COc1ccc(N(Cc2ccc(F)cc2)C(=O)c2ccco2)cc1 [Compound 1, N-(4-fluorobenzyl)-N-(4-methoxyphenyl)furan-2-carboxamide]
resistance conferred by 2C mutation F190L (in words) (Rluc-CV-B3; Rluc-CV-B3 2C[F190L], 8 hours post infection): conferred compound 1 resistance
